# Test results taken from PubChem BioAssay AID504333 (National Center for Advancing Translational Sciences (NCATS), 2011).
# Out of some 360,000 compounds screened, about 16,000 (4.4%) were called active. The shares of active, inactive and inconclusive entries below differ from those in the screen. Calls follow the shape of the dose curve; as a rule, active = well fitted inhibition curve with a large enough effect; inconclusive = small, poorly fitted or top-dose-only effect; inactive = no such curve, though single readings can be large or run the other way. Potencies of inconclusive entries are doubtful fits and often do not repeat.
# Target: Bromodomain adjacent to zinc finger domain protein 2B (Homo sapiens) (UniProt Q9UIF8)
# Test: qHTS Assay for Inhibitors of BAZ2B; also: nearly all actives have a fitted effect of over 60% in size
# Details: AlphaScreen BAZ2B-H3K14Ac peptide displacement; series mostly up to 114 µM
# Method in brief: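 BAZ2B 50 nM plus b-H3(5-23)K14Ac 50 nM, PBS pH 7.4/0.01% Tween-20, 30 min RT; compound added (max 110 uM), 30 min RT; streptavidin donor/Ni-chelate acceptor beads 10 ug/mL final, 20 min dark; AlphaScreen read.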
# Potency is read from the fitted curve at half-maximal effect; tags tell the direction and shape of the fitted curve.
# Sequence of UniProt Q9UIF8 (Q9UIF8 whole entry, looked up, the tested form may be a part): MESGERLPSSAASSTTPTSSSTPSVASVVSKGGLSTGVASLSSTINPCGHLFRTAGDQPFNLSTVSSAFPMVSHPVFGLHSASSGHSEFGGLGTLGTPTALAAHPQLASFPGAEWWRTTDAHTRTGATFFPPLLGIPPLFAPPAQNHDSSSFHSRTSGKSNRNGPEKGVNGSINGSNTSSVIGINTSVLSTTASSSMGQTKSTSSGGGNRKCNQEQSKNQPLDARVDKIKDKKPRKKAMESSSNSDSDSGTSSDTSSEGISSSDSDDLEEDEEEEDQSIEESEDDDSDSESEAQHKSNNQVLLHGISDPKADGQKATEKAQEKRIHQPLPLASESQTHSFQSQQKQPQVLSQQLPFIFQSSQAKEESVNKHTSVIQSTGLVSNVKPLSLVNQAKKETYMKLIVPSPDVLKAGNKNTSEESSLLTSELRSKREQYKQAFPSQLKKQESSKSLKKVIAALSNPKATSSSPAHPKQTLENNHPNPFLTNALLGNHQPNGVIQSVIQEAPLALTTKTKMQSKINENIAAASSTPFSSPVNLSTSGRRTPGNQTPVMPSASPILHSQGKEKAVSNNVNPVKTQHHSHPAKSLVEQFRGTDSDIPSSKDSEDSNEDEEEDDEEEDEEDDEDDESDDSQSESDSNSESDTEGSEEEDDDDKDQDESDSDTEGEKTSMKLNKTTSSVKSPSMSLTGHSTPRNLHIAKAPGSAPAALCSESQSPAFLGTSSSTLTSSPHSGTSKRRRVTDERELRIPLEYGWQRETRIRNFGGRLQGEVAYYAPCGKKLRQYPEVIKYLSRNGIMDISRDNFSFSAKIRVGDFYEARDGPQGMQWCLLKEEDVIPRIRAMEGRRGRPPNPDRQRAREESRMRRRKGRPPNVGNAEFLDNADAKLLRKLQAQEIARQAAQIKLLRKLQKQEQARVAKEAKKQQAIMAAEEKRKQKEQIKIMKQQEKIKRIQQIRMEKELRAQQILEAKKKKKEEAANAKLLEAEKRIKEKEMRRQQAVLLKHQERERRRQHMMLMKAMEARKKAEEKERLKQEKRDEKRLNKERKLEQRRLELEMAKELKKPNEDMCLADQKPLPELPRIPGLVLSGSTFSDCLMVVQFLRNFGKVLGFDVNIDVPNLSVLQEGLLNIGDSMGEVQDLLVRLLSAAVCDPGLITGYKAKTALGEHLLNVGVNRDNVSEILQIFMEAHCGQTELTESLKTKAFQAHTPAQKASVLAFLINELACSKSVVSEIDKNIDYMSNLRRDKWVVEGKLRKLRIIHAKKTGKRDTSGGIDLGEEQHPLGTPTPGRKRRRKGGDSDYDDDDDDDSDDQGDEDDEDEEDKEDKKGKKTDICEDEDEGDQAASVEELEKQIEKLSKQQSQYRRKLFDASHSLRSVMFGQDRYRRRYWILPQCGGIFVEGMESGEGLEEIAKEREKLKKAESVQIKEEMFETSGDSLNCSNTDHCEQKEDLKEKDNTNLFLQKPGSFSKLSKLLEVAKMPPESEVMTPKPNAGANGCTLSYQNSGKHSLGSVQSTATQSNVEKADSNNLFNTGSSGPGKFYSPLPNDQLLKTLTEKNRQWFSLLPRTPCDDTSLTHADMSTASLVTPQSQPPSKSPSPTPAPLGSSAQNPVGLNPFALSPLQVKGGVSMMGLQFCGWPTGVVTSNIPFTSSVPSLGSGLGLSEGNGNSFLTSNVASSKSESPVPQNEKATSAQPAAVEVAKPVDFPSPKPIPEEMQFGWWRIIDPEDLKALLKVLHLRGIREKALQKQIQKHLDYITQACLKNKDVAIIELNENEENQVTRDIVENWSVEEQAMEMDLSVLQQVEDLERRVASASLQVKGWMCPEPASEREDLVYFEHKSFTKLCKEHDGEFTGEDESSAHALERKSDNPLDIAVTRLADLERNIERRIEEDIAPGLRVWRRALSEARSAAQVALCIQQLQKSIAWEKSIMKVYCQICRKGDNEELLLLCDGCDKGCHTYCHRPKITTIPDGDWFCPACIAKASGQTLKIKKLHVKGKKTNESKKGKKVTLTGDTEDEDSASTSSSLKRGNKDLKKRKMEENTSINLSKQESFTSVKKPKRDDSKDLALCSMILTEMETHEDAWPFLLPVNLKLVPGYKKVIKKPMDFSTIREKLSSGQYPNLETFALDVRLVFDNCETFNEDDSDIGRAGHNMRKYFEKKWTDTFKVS
row,SMILES,Potency
1,O=C(CN1CCCC1)N1CCCc2ccccc21,active: 50.1 µM
2,CCn1cc(CN2CCCC(C(=O)Nc3cccc(-c4cc5ccccc5[nH]4)c3)C2)c(C)n1 (stereo unspecified),"inconclusive: 50.1 µM [inhibitor, partial curve]"
3,Cc1ccc(-n2nnc3c(=O)n(CC(=O)NCc4ccccc4)cnc32)cc1,"inconclusive: 89.1 µM [inhibitor, single point]"
4,CCC(=S)/C=C1\Sc2ccccc2N1CCCS(=O)(=O)O,"inconclusive: 100 µM [inhibitor, single point]"
5,CNC(=S)N(CCN(C)C)Cc1cc2cc3c(cc2[nH]c1=O)OCO3,inactive
6,Nc1[nH]c2cc([N+](=O)[O-])ccc2c1-c1ccccn1,active: 28.2 µM
7,COc1ccc2c(CC(=O)Nc3nc(C)cs3)coc2c1,"inconclusive: 79.4 µM [inhibitor, single point]"
8,CCOC(=O)c1ccc(NNC(C)=O)c([N+](=O)[O-])c1,"inconclusive: 79.4 µM [inhibitor, single point]"
9,CCOc1cc(NC(=S)NCC2CCCO2)c(OCC)cc1NC(=O)c1ccccc1 (stereo unspecified),"inconclusive: 79.4 µM [inhibitor, single point]"
10,CCN(CC)C(=O)Cn1cc(SCC(=O)Nc2cc(OC)ccc2OC)c2ccccc21,"inconclusive: 70.8 µM [inhibitor, single point]"
11,COc1ccc2[nH]c3c(=O)n(Cc4ccc(C(=O)NCC5CCCO5)cc4)c(=S)[nH]c3c2c1 (stereo unspecified),"inconclusive: 25.1 µM [inhibitor, full curve]"
12,CN1CCC(N(C)S(=O)(=O)c2ccc(NC(=O)COc3ccc(F)cc3)cc2)CC1,"inconclusive: 89.1 µM [inhibitor, single point]"
13,COc1ccccc1Nc1ccc(NS(=O)(=O)c2ccc(C(C)=O)cc2)cc1,"inconclusive: 31.6 µM [inhibitor, partial curve]"
14,COc1ccc(OCC(=O)Nc2ccc3c(c2)nc(CN2CCCC2)n3C)cc1,inactive
15,Cc1ccc(NC(=O)C(C)SCc2nc3sc4c(c3c(=O)[nH]2)CCCC4)nc1 (stereo unspecified),inactive
16,Cc1ccc(C(=O)Nc2nnc(-c3ccco3)o2)cc1,active: 50.1 µM
17,N#CC1=C(N)C(C#N)(C#N)C2(CCC3(CC2)OCCO3)C2CC3(CC=C12)OCCO3 (stereo unspecified),active: 100 µM
18,O=C(CCc1nc2sc3c(c2c(=O)[nH]1)CCCC3)NCC(=O)Nc1ccccc1Br,"inconclusive: 89.1 µM [inhibitor, single point]"
19,CN1CCN(NC(=S)Nc2ccc(Oc3ccccc3)cc2)CC1,"inconclusive: 79.4 µM [inhibitor, single point]"
20,COc1ccc(CCN2CC(C(=O)Nc3ccccc3F)CC2=O)cc1OC (stereo unspecified),inactive
21,O=C(Nc1nc(-c2ccccn2)cs1)c1ccc(S(=O)(=O)N2CCCCC2)cc1,"inconclusive: 20 µM [inhibitor, partial curve, poor fit]"
22,CCCCC(=O)N/N=C/c1ccc(Sc2cccc3cccnc23)o1,inactive
23,O=C(N/N=C/c1ccccn1)c1cc([N+](=O)[O-])cc([N+](=O)[O-])c1,active: 50.1 µM
24,CCCC(c1nnnn1CC1CCCO1)N1CCN(c2ccccc2)CC1 (stereo unspecified),"inconclusive: 79.4 µM [inhibitor, single point]"
25,COc1ccccc1N1CCN(c2ncc3c(n2)CCN(Cc2ccc(C)s2)C3)CC1,"inconclusive: 31.6 µM [inhibitor, partial curve]"
26,CCN1CCN(c2ccc(S(=O)(=O)N3CCCCC3)cc2NC(=O)/C=C/c2cc(OC)ccc2OC)CC1,"inconclusive: 79.4 µM [inhibitor, partial curve]"

row,SMILES,Potency
1,CNc1c(C(=O)O)ccc2c1C(=O)c1ccccc1C2=O,active: 35.5 µM
2,O=C(Cc1ccccc1)Nc1cccc(N2CCCC2)c1,inactive
3,COc1ccc(CCC(=O)NC2CCC(C)CC2)cc1 (stereo unspecified),inactive
4,CCn1cnc2cc(NCc3ccncc3)ccc21,inactive
5,O=C(NCCN1CCOCC1)c1ccccc1N1C(=O)[C@@H]2Cc3c([nH]c4ccccc34)C(c3ccccc3)N2C1=O (stereo partly specified),"inconclusive: 50.1 µM [inhibitor, partial curve]"
6,O=C(c1cc(Cl)ccc1F)N1CCCC(Nc2ccc3c(c2)OCCO3)C1 (stereo unspecified),"inconclusive: 50.1 µM [inhibitor, partial curve]"
7,C=CCn1c(-c2ccc(S(=O)(=O)N3CCOCC3)cc2)csc1=Nc1ccccc1,active: 6.31 µM
8,CC(C)COc1ccc(C(=O)Nc2onc3c2CCCC3)cc1,inactive
9,COc1ccc(NC(=S)N(CCCN2CCCC2)Cc2cccs2)cc1,"inconclusive: 89.1 µM [inhibitor, single point]"
10,O=C(NNc1c2ccccc2nc2ccccc12)c1ccc(Cl)cc1,"inconclusive: 35.5 µM [inhibitor, partial curve]"
11,Cc1ccc(NC(=O)CCCc2ccccc2)nc1,inactive
12,O=C(CSc1ccc(Cl)cc1)Nc1cccc(-c2nc3ncccc3o2)c1,"inconclusive: 79.4 µM [inhibitor, single point]"
13,COC(=O)C1=C(C(=O)OC)C(c2cc(Br)ccc2O)c2sc(=O)[nH]c2S1 (stereo unspecified),"inconclusive: 44.7 µM [inhibitor, partial curve]"
14,CCOc1ccc(NC(=O)CCS(=O)(=O)c2cccc3nsnc23)cc1,"inconclusive: 89.1 µM [inhibitor, single point]"
15,Cc1cc(S(=O)(=O)Nc2ccc(N(C)C)cc2)c(C)s1,active: 44.7 µM
16,C=CCOc1cccc(CNCc2cccnc2)c1,"inconclusive: 89.1 µM [inhibitor, single point]"
17,COc1ccc(OC)c(-c2csc(NC(=O)CSc3ccccc3)n2)c1,"inconclusive: 50.1 µM [inhibitor, partial curve]"
18,O=[N+]([O-])c1cc2c(cc1/C=N/n1c(-c3ccccn3)n[nH]c1=S)OCO2,active: 7.08 µM
19,CNC(=O)C(=O)N/N=C/c1ccccn1,active: 39.8 µM
20,Cc1[nH]c2ccccc2c1CCC(N)=O,inactive
21,NC(=O)C1CCN(C2=C(NS(=O)(=O)c3ccccc3)C(=O)c3ccccc3C2=O)CC1,active: 39.8 µM
22,CCCN1CCC(N2CCN(c3ccc([N+](=O)[O-])cc3)CC2)CC1,active: 44.7 µM
23,COc1ccc(C(=O)OCC(=O)Nc2sccc2C(N)=O)cc1OC,inactive
24,COc1ccc(-c2c3c(=O)n(C)c(=O)n(C)c3cn2N2CCOCC2)cc1,"inconclusive: 89.1 µM [inhibitor, single point]"
25,O=C(COC(=O)Cn1cnc2ccccc2c1=O)Nc1cc(Cl)ccc1[N+](=O)[O-],"inconclusive: 70.8 µM [inhibitor, single point]"
26,NC(c1ccccc1)c1ccncc1 (stereo unspecified),"inconclusive: 89.1 µM [inhibitor, single point]"

row,SMILES,Potency
1,COc1ccc(OC)c(CCNC(=O)CSc2ccsc2[N+](=O)[O-])c1,"inconclusive: 44.7 µM [inhibitor, partial curve]"
2,O=C(NCc1ccccn1)C1CCN(Cc2cccc(OCc3ccccc3)c2)CC1,"inconclusive: 89.1 µM [inhibitor, single point]"
3,O=[N+]([O-])c1cc([N+](=O)[O-])c2nonc2c1Nc1ccccc1O,inactive
4,c1ccc2[nH]c(CCCCc3nc4ccccc4[nH]3)nc2c1,inactive
5,CC(=O)Nc1ccc(S(=O)(=O)NC2=C(N3CCN(c4ccc(F)cc4)CC3)C(=O)c3ccccc3C2=O)cc1,active: 22.4 µM
6,CN(Cc1ccccn1)C(=O)CC1C(=O)NCCN1Cc1ccc(F)cc1Cl (stereo unspecified),active: 56.2 µM
7,O=[N+]([O-])c1ccc(N2CCN(Cc3ccccc3)CC2)nc1,"inconclusive: 39.8 µM [inhibitor, partial curve]"
8,CN(C)S(=O)(=O)n1cc(/C=C(\NC(=O)c2ccccc2Cl)C(=O)N2CCCC2)c2ccccc21,inactive
9,O=C(c1ccc(Br)cc1)N1CCC(C(=O)N2CCN(c3ccccc3)CC2)CC1,inactive
10,Cc1cc([N+](=O)[O-])nn1CC(=O)N/N=C/c1ccccc1O,inactive
11,O=C(CSc1oc(-c2cccs2)nc1S(=O)(=O)c1ccccc1)Nc1ccc(F)cc1,inactive
12,O=S(=O)(Nc1nc2ccccc2nc1N1CCc2ccccc2C1)c1ccc(Br)cc1,inactive
13,O=C(/C=C/NNC(=O)c1ccccc1)c1ccccc1,"inconclusive: 35.5 µM [inhibitor, single point]"
14,Oc1ccc(/C=C/c2nc(-c3ccccc3O)n(-c3ccccc3)n2)cc1,"inconclusive: 79.4 µM [inhibitor, single point]"
15,Cc1ccc(C2=NN(CCC(=O)NCCc3cccc(C)c3)C(=O)CC2)cc1,inactive
16,CC(C)C(CCNCc1ccccn1)c1ccc(Cl)cc1 (stereo unspecified),active: 50.1 µM
17,CC(C)c1ccc(NC(=S)Nc2cccc3ccccc23)cc1,"inconclusive: 50.1 µM [inhibitor, partial curve]"
18,COc1ccccc1N1CCN(C(=O)c2cc3sccc3n2C)CC1,"inconclusive: 89.1 µM [inhibitor, single point]"
19,CSc1ccc(CN2CCCN(C)CC2)cc1,active: 56.2 µM
20,Cc1ccc(N(CC(=O)N/N=C/c2cc(C)n(-c3ccccc3C)c2C)S(C)(=O)=O)cc1,"inconclusive: 39.8 µM [inhibitor, partial curve]"
21,CS(=O)(=O)Nc1ccc(C(=O)Nc2ccc3c(c2)OCO3)cc1,inactive
22,Cn1ccc2c(OCC(=O)NCc3ccc(F)cc3)cccc2c1=O,inactive
23,COc1cc([N+](=O)[O-])ccc1-c1ccc(C(=O)Nc2ccc(NC(C)=O)cc2)o1,inactive
24,COc1ccc2[nH]c(N=Nc3ccccc3C)c(O)c2c1,"inconclusive: 39.8 µM [inhibitor, partial curve]"
